# Source: PubChem BioAssay AID1508642 (National Center for Advancing Translational Sciences (NCATS), 2021)
# Among all 43,000 compounds or so, about 200 (0.47%) were called active. Inconclusive results (about 12%) are left out. The call rests on the fitted dose curve; in most records, active means well fitted cell-killing curve with a large enough effect; inconclusive means small, poorly fitted or top-dose-only effect, or effect the other way; inactive means flat fitted curve, though single readings scatter. The list shows a part of the results.
# Experiment: Cell viability qHTS assay in S16 Pmp22-F2sN cells; further: nearly all actives have a fitted effect of over 65% in size
# Details: S16 Pmp22-F2sN Schwann cells (luciferase reporters placed in the Pmp22 gene) viability, CellTiter-Glo, 24 h; series mostly up to 57.5 µM; activity change, negative = cytotoxicity: at the top concentration
# Outline: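 CellTiter-Glo counter-screen, qHTS, 1536-well. Cells: S16(c9) Pmp22-F2sN, 500-1,000/well in DMEM + 10% FBS. Cpd 23 nL pin transfer, 24 h, 37C/5% CO2. Read: luminescence, CCD imager.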
# On the % scale 0 is the no-effect control and ±100 the full control effect.
row,Structure (SMILES),"activity change, negative = cytotoxicity"
1,CCc1ccccc1NC(=O)CSc1nc2ccccc2nc1Cc1cccc(OC)c1,inactive: 3.54%
2,O=C(NCc1ccccc1)c1ccc2c(c1)sc1nc(-c3ccc(F)cc3)cn12,inactive: 1.34%
3,COc1cccc(-c2cn3c(n2)sc2cc(C(=O)NCCc4ccccc4)ccc23)c1,inactive: 2.42%
4,Cc1ccc(-c2cn3c(n2)sc2cc(C(=O)NC4CCCCCC4)ccc23)c(C)c1,inactive: 0.552%
5,Cc1cccc(NC(c2nnc(-c3ccccc3)o2)c2ccc(F)cc2Cl)c1C (stereo unspecified),inactive: -0.767%
6,Cc1oc2c(c(C)cc3oc(=O)c(CC(=O)NCCc4ccc(Cl)cc4)c(C)c32)c1C,inactive: 5.31%
7,Cc1ccc(Cl)cc1N1CCN(C(=O)C2CCN(S(=O)(=O)c3c(C)noc3/C=C/c3ccccc3F)CC2)CC1,inactive: -4.18%
8,CCc1ccccc1NC(=O)Cn1c(=O)oc2ccccc21,inactive: 4.86%
9,CCOc1ccc(C2CC(=O)c3c([nH]c(C(=O)OC4CCCCCC4)c3C)C2)cc1 (stereo unspecified),inactive: -3.4%
10,COc1ccc(C(=O)NCC(c2cccs2)S(=O)(=O)c2cccs2)cc1 (stereo unspecified),inactive: 1.45%
11,Cc1ccc(NC(=O)[C@H](Cc2ccccc2)N2Cc3ccccc3C2=O)cc1F,inactive: -5.2%
12,Cc1ccc(S(=O)(=O)Nc2nc3n(n2)C(c2ccc(Cl)cc2)C=C(c2ccccc2)N3)cc1 (stereo unspecified),inactive: 0.0671%
13,O=C(CN1C(=O)CC(c2ccco2)Sc2ccccc21)Nc1ccc(OC(F)(F)F)cc1 (stereo unspecified),inactive: 11.8%
14,COc1ccc(S(=O)(=O)N2CCC(Oc3ccc(-n4cnnn4)cc3)CC2)cc1,inactive: 3.41%
15,COc1cccc(OC)c1C(=O)NCCc1sc(-c2cccc(F)c2)nc1C,inactive: -4.54%
16,CCCCNC(=O)c1cccc(NC(=O)c2nsc3ccccc23)c1,inactive: 4.65%
17,CCOc1ccc2c(c1)c(=O)c(C(=O)c1ccc3c(c1)OCO3)cn2Cc1ccc(F)cc1,inactive: 0.491%
18,COc1ccccc1N1CCN(c2ncnc3c2c(-c2ccccc2)cn3-c2cccc(Cl)c2)CC1,inactive: 13%
19,CCc1nn(C(CC)C(=O)NCc2ccc(OC)c(OC)c2)c(=O)c2cc3oc(C)cc3n12 (stereo unspecified),inactive: -24.8%
20,Cc1nn(-c2nc(-c3ccccc3)cc(C(F)(F)F)n2)c(C)c1Cl,inactive: 7.56%
21,COc1ccc(C(=O)Nc2ccccc2-c2nc3ccccc3s2)cc1OC,inactive: -0.479%
22,Cc1ccc(C)c(NC(=O)CSc2nccn2-c2cccc(C)c2C)c1,inactive: -12.2%
23,COc1cccc(CNC(=O)c2cnc3c(-c4ccc(F)cc4)c(C)nn3c2C)c1,inactive: -13.6%
24,CCc1ccc(C2C(C(=O)Nc3ccccc3OC)=C(C)Nc3c(C(=O)Nc4ccc(C)cc4)cnn32)cc1 (stereo unspecified),inactive: -4.85%

row,Structure (SMILES),"activity change, negative = cytotoxicity"
1,CCN(C(=O)c1cn(-c2cccc(OC)c2)c(=O)c2ccccc12)c1ccccc1C,inactive: -1.34%
2,COc1cc2c(cc1OC)C(c1cccc(Cl)c1)CC(=O)N2 (stereo unspecified),inactive: 6.38%
3,COc1ccc(OC)c(NC(=O)c2oc(=O)c3ccccc3c2-c2ccccc2)c1,inactive: -1.93%
4,O=C(c1ccc(F)cc1)N1CCc2c([nH]c3ccccc23)C1c1ccc(Cl)cc1 (stereo unspecified),inactive: -7.63%
5,CCc1ccc(OCCSc2nc3ccccc3n2CC(=O)N2CCCCC2)cc1,inactive: -17.3%
6,CCOc1ccc(NCc2cccn2-c2nnc(N3CCC(C(=O)NCc4ccccc4Cl)CC3)s2)cc1,inactive: -9.12%
7,CC(C)(C)OC(=O)N1CCC(c2c(C(=O)NCc3cccs3)cnn2-c2cccc(F)c2)CC1,inactive: -15.2%
8,COc1ccc(Cl)cc1NC(=O)N1CCN(S(=O)(=O)c2ccc3c(ccn3C)c2)CC1,inactive: -0.0251%
9,Clc1ccc(-c2nnn3c2nc(NC2CCCCC2)c2ccccc23)cc1,inactive: 1.13%
10,CCOc1ccc(Nc2ncnc3c2c(-c2ccccc2)cn3-c2cccc(C)c2)cc1,inactive: -0.275%
11,CCOc1ccc(C(=O)N(Cc2ccc(C(C)C)cc2)Cc2ccco2)cc1,inactive: -19.3%
12,COc1cc(NC(=O)c2cccc(Cl)c2Cl)ccc1NC(=O)c1cc2ccccc2o1,inactive: 16.3%
13,CCS(=O)(=O)N1CCCc2cc(C(=O)Nc3cccc(C(C)=O)c3)ccc21,inactive: -18.6%
14,CCC(=O)N1CCc2cc(Br)cc(S(=O)(=O)CCC(=O)Nc3cccc(Cl)c3)c21,inactive: -5.89%
15,CCCn1c2ccc(F)cc2c2nnc(SCCN3CCCCC3)nc21,inactive: -3.38%
16,CCCc1cnc2c(c1SCC(=O)Nc1ccccc1OCC)c(=O)n(C)c(=O)n2C,inactive: -19.2%
17,CCCSCCCNC(=O)c1ccc(C)c(NC(=O)c2nsc3ccccc23)c1,inactive: 9.67%
18,COc1cccc(Cn2nc(SC)c(S(=O)(=O)c3ccccc3)c2N(C(C)=O)C(C)=O)c1,inactive: 3.77%
19,Cc1cc2c(cc1NS(=O)(=O)c1ccc(Br)cc1)n(C)c(=O)c(=O)n2C,inactive: 4.09%
20,Cc1ccc(NC(=O)CCCc2nc(-c3ccco3)no2)cc1Cl,inactive: 0.276%
21,COc1ccc(-n2nnnc2C2CCN(S(=O)(=O)c3cccc(C(F)(F)F)c3)CC2)cc1,inactive: 8.32%
22,COc1cccc(NC(=O)C(Cc2ccccc2)N2Cc3ccccc3C2=O)c1 (stereo unspecified),inactive: 3.41%
23,COc1ccc(-n2c(SCC(=O)NCc3ccc(Cl)cc3)nc3ccsc3c2=O)cc1,inactive: -2.37%
24,COc1cccc(-n2c(=O)c3cc(OC)c(OC)cc3n(CC(=O)Nc3ccc(F)cc3)c2=O)c1,inactive: 13.7%

row,Structure (SMILES),"activity change, negative = cytotoxicity"
1,COc1ccc(-c2noc(CCC(=O)N(C)c3cc(Cl)ccc3OC)n2)cc1,inactive: 5.21%
2,CC(C)CCOc1ccc(C(=O)NCC2OCCc3ccccc32)cc1 (stereo unspecified),inactive: -0.24%
3,CC(=O)c1ccc(N2CCN(S(=O)(=O)c3cc4[nH]c(=O)c(=O)[nH]c4cc3C)CC2)cc1,inactive: 5.09%
4,COc1ccccc1CNC(=O)C(=O)NCC(c1cccs1)S(=O)(=O)c1ccccc1 (stereo unspecified),inactive: -9.06%
5,CCc1nnc(NC(=O)c2cc(=O)c3cc(C)ccc3o2)s1,inactive: 4%
6,Cc1ccc(C)c(N2CCN(C(=O)Cn3cnc4onc(-c5ccc(F)cc5)c4c3=O)CC2)c1,inactive: 13.2%
7,CC(=O)Nc1ccc(/C=C/c2noc(-c3ccccc3O)n2)cc1,inactive: 1.55%
8,CCOC(=O)CSc1nc(-c2ccc(OCC)cc2)cc(C(F)(F)F)c1C#N,inactive: -1.2%
9,Cc1ccc2oc(=O)c3cc(C(=O)NCCCOC(C)C)sc3c2c1,inactive: 7.51%
10,COc1cccc(NC(=O)c2cccc3c(=O)c4c([nH]c23)CCCC4)c1,inactive: -15.7%
11,COc1ccc(C(=O)c2oc3ccccc3c2NC(=O)c2cc(=O)c3ccc(C)cc3o2)cc1Cl,inactive: 2.31%
12,Cc1ccc(S(=O)(=O)CC(=O)Nc2nc3c(C)cc(C)cc3s2)cc1,inactive: 9.8%
13,Cc1cccc(C(=O)Nc2nnc(S(=O)(=O)N(C)Cc3ccccc3)s2)c1,inactive: -3.61%
14,CCOc1ccc(-c2cccc(NS(=O)(=O)c3ccc(F)cc3F)c2)nn1,inactive: -0.55%
15,COc1ccc(-c2noc(CNC(=O)c3ccccc3Br)n2)cc1,inactive: -4.06%
16,COc1ccc(-c2nc3c(c(SCC(=O)N4CCCCC4)n2)Cc2cc(C)ccc2O3)cc1,inactive: -5.15%
17,Cc1ccc(S(=O)(=O)NCC(c2ccco2)N2CCOCC2)cc1 (stereo unspecified),inactive: 8.78%
18,O=S(=O)(c1cccc(Cl)c1)c1nnn2c1nc(NCc1ccc3c(c1)OCO3)c1sccc12,inactive: -7.11%
19,CCOc1ccc2ncc3c(-c4ccc(C)cc4)nn(-c4cccc(F)c4)c3c2c1,inactive: -1.54%
20,CCOc1ccc(OCC)c(NC(=O)c2cc(S(=O)(=O)N3CCc4ccccc43)cn2C)c1,inactive: -14.4%
21,CCOC(=O)c1c(NC(=O)Cc2coc3cc(C)cc(C)c23)sc2c1CCC2,inactive: 2.89%
22,CC(=O)c1ccc(NC(=O)c2cc(C)nn2-c2ccccc2)cc1,inactive: 7.76%
23,COCCN(CCOC)S(=O)(=O)c1ccc(C(=O)Nc2sc3c(c2C(=O)OC)CCN(C)C3)cc1,inactive: 16.9%
24,CCN(CC)S(=O)(=O)c1cccc(C(=O)Nc2ccccc2C(=O)Nc2ccc(Cl)cc2)c1,inactive: -20.4%

row,Structure (SMILES),"activity change, negative = cytotoxicity"
1,Cc1ccc(-n2c(/C=C/c3c(C)n(C)c4ccccc34)nc3ccccc3c2=O)cc1,inactive: 7.4%
2,Cc1ccc(C)c(NS(=O)(=O)c2cc3c(cc2C)n(C)c(=O)c(=O)n3C)c1,inactive: -16.5%
3,Cc1cccc(-n2c(C)cc(C(=O)C(=O)Nc3ccccc3F)c2C)c1C,inactive: -2.15%
4,O=c1[nH]c(SCc2c(F)cccc2Cl)nc2c1CCC2,inactive: 3.39%
5,CCOc1cccc(C(=O)Nc2ccc(-c3nc4ncccc4o3)cc2C)c1,inactive: -7.21%
6,CCOC(=O)c1ccccc1NC(=O)c1sc2nc3n(c(=O)c2c1C)CCCCC3,inactive: 28.2%
7,CN(C)S(=O)(=O)N(CC(=O)NCCSCc1c(F)cccc1Cl)c1ccccc1,inactive: -5.74%
8,COC(=O)c1c(NC(C)=O)c2c3c(sc2n1Cc1cc(C)ccc1C)CCCC3,inactive: -10.9%
9,CCN(CC)CCNC(=O)C1CCN(C(=O)c2cnn(-c3ccccc3)c2-n2cccc2)CC1,inactive: 27.9%
10,CCc1cccc(NC(=O)Cn2c(C(=O)OC)cc3sc(Cl)cc32)c1,inactive: 1.62%
11,CCCCOc1ccc(C2c3c(oc4ccc(C)cc4c3=O)C(=O)N2CCCN(C)C)cc1OCC (stereo unspecified),inactive: 1.55%
12,CC(=O)NCCNC(=O)CCCn1c(=O)[nH]c2ccsc2c1=O,inactive: 4.97%
13,Cc1ccc(NC(=O)CSc2nc(=O)cc(N)n2-c2ccccc2)cc1,inactive: 0.0658%
14,Cc1ccc2nc(NC(=O)CSc3[nH]c(=O)ncc3C)sc2c1,inactive: 8.69%
15,Cc1ccc2c(CNC3CCCCC3)c(C(=O)O)n(Cc3ccc(F)cc3)c2c1,inactive: 24.4%
16,COCCNC(=O)c1ccc2c(c1)N(Cc1cc(C)ccc1C)C(=O)c1ccccc1S2=O (stereo unspecified),inactive: 4.49%
17,Cc1ccc2nc(COc3cccc(NC(=O)Nc4ccc(C)c(Cl)c4)c3)cc(=O)n2c1,inactive: 11.2%
18,CC(=O)c1cccc(NC(=O)c2sc(-n3nc(C)c(Cc4ccccc4)c3C)nc2C)c1,inactive: 1.22%
19,CCCS(=O)(=O)N1CC(=O)N(c2cccc(Cl)c2)C(C)(C(=O)NC2CCCCC2)C1 (stereo unspecified),inactive: 0.382%
20,Cc1cc(=O)[nH]c2nnc(SCc3ccc(Cl)cc3Cl)n12,inactive: -16.7%
21,O=C(Nc1ccc(F)c(Cl)c1)c1ccc2c(Cl)c3c(nc2c1)CCCC3,inactive: 10.6%
22,CCOc1ccccc1CNC(=O)c1cc2c(=O)n(Cc3cccnc3)ccc2nc1C,inactive: 4.05%
23,COc1cccc2cc(-c3nc(-c4ccccc4F)no3)c(=O)oc12,inactive: 0.125%
24,Cc1cc(C)cc(-n2c(SCC(=O)Nc3ccccc3)nc3c(oc4ccccc43)c2=O)c1,inactive: 1.17%
